The values below come from US7592316B2, “Peptides as NS3-serine protease inhibitors of hepatitis C virus” (Schering Corporation, priority 2000, dated 2009).

*1 amine or outer side, *2 acyl side, *3 side chain or, on linkers, in order; H or OH if unused. Where a SMILES comes first, the peptide text is derived from it. [ ]: non-standard residue; d: D form. The star is where a group is joined. ξ: configuration not given here. Benzoyl(2-COOH-4,5-Cl2) = O=C(O)c1cc(Cl)c(Cl)cc1C(=O)*; Pro(4,4-ethylenedioxy) = O=C(O)[C@@H]1CC2(CN1)OCCO2; Pro(trans-4-Ph) = O=C(O)[C@@H]1C[C@@H](c2ccccc2)CN1; Pro(4,4-S(CH2)3S) = O=C(O)[C@@H]1CC2(CN1)SCCCS2; Pro(4,4-SCH2CH2S) = O=C(O)[C@@H]1CC2(CN1)SCCS2; Oic(3aξ,7aξ) = O=C(O)[C@@H]1CC2CCCCC2N1; Isobutyloxycarbonyl = CC(C)COC(=O)*; Cyclopentylacetyl = O=C(CC1CCCC1)*; Pro(4-oxo) = O=C1CN[C@H](C(=O)O)C1; X2 = CCCC(N[*:1])C(=O)C(=O)[*:2]; X26 = c1ccc(Oc2ccc(N*)cc2)cc1; Chg = N[C@H](C(=O)O)C1CCCCC1; Phg = N[C@H](C(=O)O)c1ccccc1; Troc = O=C(OCC(Cl)(Cl)Cl)*; ξChg = NC(C(=O)O)C1CCCCC1; ξPhg = NC(C(=O)O)c1ccccc1; Boc = CC(C)(C)OC(=O)*; CO = O=C([*:1])[*:2]; OBn = c1ccc(CO*)cc1; Bn = c1ccc(C*)cc1; OtBu = CC(C)(C)O*

The target in the test is HCV NS3/NS4A protease (strain 1a) (Hepatitis C virus genotype 1a, UniProt P27958). Kind of test: biochemical. Conditions: HCV protease continuous assay results, Table 1; read-out: Ki* Range.
Usually Ki stands for a measure of affinity in units of concentration, obtained from inhibition or displacement. For the compound `CCCC(NC(=O)[C@@H]1CC2(CN1C(=O)C(NC(=O)OCC(C)C)C1CCCCC1)SCCS2)C(=O)C(=O)NCC(=O)NC(C(=O)OC(C)(C)C)c1ccccc1` (stereo partly drawn) [Example 77] (Isobutyloxycarbonyl-[ξChg][Pro(4,4-SCH2CH2S)][X2]G[ξPhg]-OtBu), the Ki fell in the range of 101 to 1000 nM. As for `CCCC(NC(=O)[C@@H]1CC2(CN1C(=O)C(NC(=O)OCC(C)C)C1CCCCC1)SCCS2)C(=O)C(=O)NCC(=O)NC(C(=O)O)c1ccccc1` (stereo partly drawn) [Example 78] (Isobutyloxycarbonyl-[ξChg][Pro(4,4-SCH2CH2S)][X2]G[ξPhg]-OH), the figure is 1 to 100 nM; as for `CCCC(NC(=O)[C@@H]1C[C@@H](c2ccccc2)CN1C(=O)[C@@H](NC(=O)OC(C)(C)C)C1CCCCC1)C(=O)C(=O)NCC(=O)NC(C(=O)OCc1ccccc1)C1CCCCC1` (stereo partly drawn) [Example 79] (Boc-[Chg][Pro(trans-4-Ph)][X2]G[ξChg]-OBn), greater than 1000 nM. Next, `CCCC(NC(=O)[C@@H]1C[C@@H](c2ccccc2)CN1C(=O)[C@@H](NC(=O)OC(C)(C)C)C1CCCCC1)C(=O)C(=O)NCC(=O)NC(C(=O)O)C1CCCCC1` (stereo partly drawn) [Example 80] (Boc-[Chg][Pro(trans-4-Ph)][X2]G[ξChg]-OH): 1 to 100 nM.

As for `CCCC(NC(=O)[C@@H]1C[C@@H](c2ccccc2)CN1C(=O)[C@@H](NC(=O)OCC(C)C)C1CCCCC1)C(=O)C(=O)NCC(=O)NC(C(=O)OCc1ccccc1)C1CCCCC1` (stereo partly drawn) [Example 81] (Isobutyloxycarbonyl-[Chg][Pro(trans-4-Ph)][X2]G[ξChg]-OBn), the Ki is greater than 1000 nM.

On to `CCCC(NC(=O)[C@@H]1C[C@@H](c2ccccc2)CN1C(=O)[C@@H](NC(=O)OCC(C)C)C1CCCCC1)C(=O)C(=O)NCC(=O)NC(C(=O)O)C1CCCCC1` (stereo partly drawn) [Example 82] (Isobutyloxycarbonyl-[Chg][Pro(trans-4-Ph)][X2]G[ξChg]-OH), for which the Ki lay in the range of 1 to 100 nM. For `CCCC(NC(=O)[C@@H]1C[C@@H](c2ccccc2)CN1C(=O)[C@@H](NC(=O)OCC(C)C)C1CCCCC1)C(=O)C(=O)NCC(=O)N[C@H](C(=O)O)c1ccccc1` (stereo partly drawn) [Example 83] (Isobutyloxycarbonyl-[Chg][Pro(trans-4-Ph)][X2]G[Phg]-OH), the Ki fell in the range of 101 to 1000 nM. As for `CCCC(NC(=O)[C@@H]1C[C@@H](c2ccccc2)CN1C(=O)[C@@H](NC(=O)OCC(C)C)C1CCCCC1)C(=O)C(=O)NCC(=O)N[C@H](C(=O)OC(C)(C)C)c1ccccc1` (stereo partly drawn) [Example 84] (Isobutyloxycarbonyl-[Chg][Pro(trans-4-Ph)][X2]G[Phg]-OtBu), the figure is greater than 1000 nM. Next, `CCCC(NC(=O)[C@@H]1C[C@@H](c2ccccc2)CN1C(=O)[C@@H](NC(=O)OCC(Cl)(Cl)Cl)C1CCCCC1)C(=O)C(=O)NCC(=O)N[C@H](C(=O)OC(C)(C)C)c1ccccc1` (stereo partly drawn) [Example 85] (Troc-[Chg][Pro(trans-4-Ph)][X2]G[Phg]-OtBu): greater than 1000 nM; `CCCC(NC(=O)[C@@H]1C[C@@H](c2ccccc2)CN1C(=O)[C@@H](NC(=O)OCC(Cl)(Cl)Cl)C1CCCCC1)C(=O)C(=O)NCC(=O)N[C@H](C(=O)O)c1ccccc1` (stereo partly drawn) [Example 86] (Troc-[Chg][Pro(trans-4-Ph)][X2]G[Phg]-OH): 101 to 1000 nM. On to `CCCC(NC(=O)[C@@H]1CC2(CN1C(=O)C(NC(=O)OCC(C)C)C1CCCCC1)SCCCS2)C(=O)C(=O)NCC(=O)NC(C(=O)OC(C)(C)C)c1ccccc1` (stereo partly drawn) [Example 87] (Isobutyloxycarbonyl-[ξChg][Pro(4,4-S(CH2)3S)][X2]G[ξPhg]-OtBu), for which the Ki is 101 to 1000 nM. As for `CCCC(NC(=O)[C@@H]1CC2(CN1C(=O)C(NC(=O)OCC(C)C)C1CCCCC1)SCCCS2)C(=O)C(=O)NCC(=O)NC(C(=O)O)c1ccccc1` (stereo partly drawn) [Example 88] (Isobutyloxycarbonyl-[ξChg][Pro(4,4-S(CH2)3S)][X2]G[ξPhg]-OH), the figure is 1 to 100 nM; as for `CCCC(NC(=O)[C@@H]1CC2CCCCC2N1C(=O)[C@@H](NC(=O)OCC(C)C)C1CCCCC1)C(=O)C(=O)NCC(=O)NC(C(=O)O)c1ccccc1` (stereo partly drawn) [Example 89] (Isobutyloxycarbonyl-[Chg][Oic(3aξ,7aξ)][X2]G[ξPhg]-OH), 101 to 1000 nM. As for `CCCC(NC(=O)[C@@H]1CC2(CN1C(=O)C(NC(=O)OCC(C)C)C1CCCCC1)SCCCS2)C(=O)C(=O)NCC(=O)OC(C)(C)C` (stereo partly drawn) [Example 90], the figure is greater than 1000 nM.

As for `CCCC(NC(=O)[C@@H]1CC2(CN1C(=O)C(NC(=O)OCC(C)C)C1CCCCC1)SCCCS2)C(=O)C(=O)NCC(=O)O` (stereo partly drawn) [Example 91], the Ki was greater than 1000 nM. As for `CCCC(NC(=O)[C@@H]1C[C@@H](OCc2ccccc2)CN1C(=O)[C@@H](NC(=O)[C@H](CC(C)C)NS(C)(=O)=O)C1CCCCC1)C(=O)C(=O)NCCCC(C(N)=O)c1ccccc1` (stereo partly drawn) [Example 92], the figure is greater than 1000 nM; as for `CCCC(NC(=O)[C@@H]1C[C@@H](OCc2ccccc2)CN1C(=O)[C@@H](NC(=O)CC(C)CC(=O)O)C1CCCCC1)C(=O)C(=O)NCCCC(C(N)=O)c1ccccc1` (stereo partly drawn) [Example 93], greater than 1000 nM; as for `CCCC(NC(=O)[C@@H]1C[C@@H](OCc2ccccc2)CN1C(=O)[C@@H](NC(=O)c1ccccc1C(=O)O)C1CCCCC1)C(=O)C(=O)NCCCC(C(N)=O)c1ccccc1` (stereo partly drawn) [Example 94], greater than 1000 nM. As for `CCCC(NC(=O)[C@@H]1C[C@@H](OCc2ccccc2)CN1C(=O)[C@@H](NC(=O)c1cc(Cl)c(Cl)cc1C(=O)O)C1CCCCC1)C(=O)C(=O)NCCCC(C(N)=O)c1ccccc1` (stereo partly drawn) [Example 95], the figure is greater than 1000 nM. Next, `CCCC(NC(=O)[C@@H]1C[C@@H](OCc2ccccc2)CN1C(=O)[C@@H](NC(=O)CC1CCCC1)C1CCCCC1)C(=O)C(=O)NCCCC(C(N)=O)c1ccccc1` (stereo partly drawn) [Example 96]: greater than 1000 nM. Take `CCCC(NC(=O)[C@@H]1C[C@@H](OCc2ccccc2)CN1C(=O)[C@@H](NC(=O)OCC(C)C)C1CCCCC1)C(=O)C(=O)NCCCC(C(N)=O)c1ccccc1` (stereo partly drawn) [Example 97]: the Ki is greater than 1000 nM. Next, `CCCC(NC(=O)[C@@H]1CC2(CN1C(=O)[C@@H](NC(=O)OCC(C)C)C1CCCCC1)OCCO2)C(=O)C(=O)NCC(=O)NC(C(N)=O)c1ccccc1` (stereo partly drawn) [Example 98] (Isobutyloxycarbonyl-[Chg][Pro(4,4-ethylenedioxy)][X2]G[ξPhg]-NH2): 101 to 1000 nM. Next, `CCCC(NC(=O)[C@@H]1CC2(CN1C(=O)[C@@H](NC(=O)OCC(C)C)[C@@H](C)OCc1ccccc1)SCCCS2)C(=O)C(=O)NCC(=O)N[C@H](C(=O)O)c1ccccc1` (stereo partly drawn) [Example 99] (Isobutyloxycarbonyl-T(Bn)[Pro(4,4-S(CH2)3S)][X2]G[Phg]-OH): 101 to 1000 nM; `CCCC(NC(=O)[C@@H]1CC2(CN1C(=O)C(NC(=O)OCC(C)C)C1CCCCC1)SCCS2)C(=O)C(=O)NCC(=O)NC(C(=O)N(C)C)c1ccccc1` (stereo partly drawn) [Example 100] (Isobutyloxycarbonyl-[ξChg][Pro(4,4-SCH2CH2S)][X2]G[ξPhg]-NMe2): 1 to 100 nM. Next, `CCCC(NC(=O)[C@@H]1CC2(CN1C(=O)C(NC(=O)OCC(C)C)C1CCCCC1)SCCS2)C(=O)C(=O)NCC(=O)NC(C(=O)NC)c1ccccc1` (stereo partly drawn) [Example 101] (Isobutyloxycarbonyl-[ξChg][Pro(4,4-SCH2CH2S)][X2]G[ξPhg]-NHMe): 1 to 100 nM; `CCCC(NC(=O)[C@@H]1CC2(CN1C(=O)C(NC(=O)Nc1ccc(Oc3ccccc3)cc1)C1CCCCC1)SCCCS2)C(=O)C(=O)NCC(=O)NC(C(N)=O)c1ccccc1` (stereo partly drawn) [Example 102] ({X26-CO}-[ξChg][Pro(4,4-S(CH2)3S)][X2]G[ξPhg]-NH2): greater than 1000 nM; `CCCC(NC(=O)[C@@H]1C[C@@H](OCc2ccccc2)CN1C(=O)[C@@H](NC(=O)c1cc(Cl)c(Cl)cc1C(=O)O)C1CCCCC1)C(=O)C(=O)NCCOC(C(N)=O)c1ccccc1` (stereo partly drawn) [Example 103]: greater than 1000 nM. In the case of `CCCC(NC(=O)[C@@H]1C[C@@H](OCc2ccccc2)CN1C(=O)[C@@H](NC(=O)[C@H](CC(C)C)NS(C)(=O)=O)C1CCCCC1)C(=O)C(=O)NCCOC(C(N)=O)c1ccccc1` (stereo partly drawn) [Example 104], the Ki was greater than 1000 nM. As for `CCCC(NC(=O)[C@@H]1C[C@@H](O)CN1C(=O)[C@@H](NC(=O)c1cc(Cl)c(Cl)cc1C(=O)O)C1CCCCC1)C(=O)C(=O)NCCOC(C(N)=O)c1ccccc1` (stereo partly drawn) [Example 105], the figure is greater than 1000 nM. Regarding `CCCC(NC(=O)[C@@H]1C[C@@H](OC(C)(C)C)CN1C(=O)[C@@H](NC(=O)[C@H](CC(C)C)NS(C)(=O)=O)C1CCCCC1)C(=O)C(=O)NCCOC(C(N)=O)c1ccccc1` (stereo partly drawn) [Example 106], the Ki is greater than 1000 nM. Next, `CCCC(NC(=O)[C@@H]1CC(=O)CN1C(=O)[C@@H](NC(=O)OCC(C)C)C1CCCCC1)C(=O)C(=O)NCC(=O)NC(C(=O)O)c1ccccc1` (stereo partly drawn) [Example 107] (Isobutyloxycarbonyl-[Chg][Pro(4-oxo)][X2]G[ξPhg]-OH): 101 to 1000 nM. As for `CCCC(NC(=O)[C@@H]1CC2(CN1C(=O)[C@@H](NC(=O)c1cc(Cl)c(Cl)cc1C(=O)O)C1CCCCC1)SCCCS2)C(=O)C(=O)NCC(=O)NC(C(N)=O)c1ccccc1` (stereo partly drawn) [Example 108] ({Benzoyl(2-COOH-4,5-Cl2)}-[Chg][Pro(4,4-S(CH2)3S)][X2]G[ξPhg]-NH2), the Ki fell in the range of 1 to 100 nM. Next, `CCCC(NC(=O)[C@@H]1CC2(CN1C(=O)[C@@H](NC(=O)OCC(C)C)C1CCCCC1)SCCCS2)C(=O)C(=O)NCC(=O)NC(C(N)=O)c1ccccc1` (stereo partly drawn) [Example 109] (Isobutyloxycarbonyl-[Chg][Pro(4,4-S(CH2)3S)][X2]G[ξPhg]-NH2): 1 to 100 nM; `CCCC(NC(=O)[C@@H]1CC2(CN1C(=O)[C@@H](NC(=O)CC1CCCC1)C1CCCCC1)SCCCS2)C(=O)C(=O)NCC(=O)NC(C(N)=O)c1ccccc1` (stereo partly drawn) [Example 110] (Cyclopentylacetyl-[Chg][Pro(4,4-S(CH2)3S)][X2]G[ξPhg]-NH2): 1 to 100 nM; `CCCC(NC(=O)[C@@H]1CC2(CN1C(=O)C(NC(=O)OCC(C)C)C1CCCCC1)SCCCS2)C(=O)C(=O)NCC(=O)NC(C(=O)NC)c1ccccc1` (stereo partly drawn) [Example 111] (Isobutyloxycarbonyl-[ξChg][Pro(4,4-S(CH2)3S)][X2]G[ξPhg]-NHMe): 1 to 100 nM. On to `CCCC(NC(=O)[C@@H]1CC2(CN1C(=O)C(NC(=O)OCC(C)C)C1CCCCC1)SCCCS2)C(=O)C(=O)NCC(=O)NC(C(=O)N(C)C)c1ccccc1` (stereo partly drawn) [Example 112] (Isobutyloxycarbonyl-[ξChg][Pro(4,4-S(CH2)3S)][X2]G[ξPhg]-NMe2), for which the Ki is 1 to 100 nM.
